Measured values reported in PMC8255383.
Results are given in words; binding and its absence hold for the method and conditions named. For some of these results: In cells and extracts the contact can be indirect. Some binding calls cover weakened binding; strength is not graded here. For some of these results: Sequences can lack the tags named with a protein.

Sequences of proteins named here, by UniProt entry; tags and fusion partners are left off. A change or cut given only in a name is not applied to a line headed by its entry.
UniProt Q9NRC8: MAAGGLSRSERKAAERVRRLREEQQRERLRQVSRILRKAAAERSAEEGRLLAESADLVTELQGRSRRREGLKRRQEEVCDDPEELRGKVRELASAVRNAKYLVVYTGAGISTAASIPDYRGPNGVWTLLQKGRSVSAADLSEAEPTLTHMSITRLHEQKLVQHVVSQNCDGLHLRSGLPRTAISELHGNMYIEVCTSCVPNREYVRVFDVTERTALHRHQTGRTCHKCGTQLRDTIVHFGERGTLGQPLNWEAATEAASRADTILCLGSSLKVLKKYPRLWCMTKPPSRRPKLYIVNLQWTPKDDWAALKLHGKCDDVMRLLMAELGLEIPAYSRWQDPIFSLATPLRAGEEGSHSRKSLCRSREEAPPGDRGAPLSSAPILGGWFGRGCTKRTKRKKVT
UniProt Q8N6T7: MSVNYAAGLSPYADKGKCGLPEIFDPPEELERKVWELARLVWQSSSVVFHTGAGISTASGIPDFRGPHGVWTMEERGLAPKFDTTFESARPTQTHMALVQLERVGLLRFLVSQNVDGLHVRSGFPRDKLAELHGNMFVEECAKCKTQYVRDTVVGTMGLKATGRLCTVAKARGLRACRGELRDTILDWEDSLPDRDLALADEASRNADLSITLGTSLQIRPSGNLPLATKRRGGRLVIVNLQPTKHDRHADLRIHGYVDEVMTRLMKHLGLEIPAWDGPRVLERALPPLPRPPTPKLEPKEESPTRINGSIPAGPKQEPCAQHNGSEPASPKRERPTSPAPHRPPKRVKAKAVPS
UniProt Q96EB6: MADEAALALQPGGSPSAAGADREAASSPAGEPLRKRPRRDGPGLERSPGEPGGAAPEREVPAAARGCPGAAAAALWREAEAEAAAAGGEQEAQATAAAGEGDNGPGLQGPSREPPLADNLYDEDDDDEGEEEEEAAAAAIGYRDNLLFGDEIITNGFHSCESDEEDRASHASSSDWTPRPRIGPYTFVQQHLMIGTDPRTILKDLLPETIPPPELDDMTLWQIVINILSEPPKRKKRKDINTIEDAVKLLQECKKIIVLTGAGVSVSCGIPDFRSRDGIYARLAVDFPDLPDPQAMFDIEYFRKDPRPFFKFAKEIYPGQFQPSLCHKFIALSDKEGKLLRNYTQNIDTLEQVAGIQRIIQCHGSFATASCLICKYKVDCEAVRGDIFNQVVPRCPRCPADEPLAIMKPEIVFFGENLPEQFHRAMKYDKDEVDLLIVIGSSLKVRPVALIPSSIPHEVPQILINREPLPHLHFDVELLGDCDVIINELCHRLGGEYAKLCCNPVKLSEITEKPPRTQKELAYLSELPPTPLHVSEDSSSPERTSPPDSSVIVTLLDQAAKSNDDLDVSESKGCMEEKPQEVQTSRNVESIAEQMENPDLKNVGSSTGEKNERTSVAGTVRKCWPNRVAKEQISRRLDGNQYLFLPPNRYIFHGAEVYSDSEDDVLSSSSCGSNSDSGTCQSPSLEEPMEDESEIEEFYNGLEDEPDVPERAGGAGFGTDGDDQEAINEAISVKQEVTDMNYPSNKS
UniProt P15559: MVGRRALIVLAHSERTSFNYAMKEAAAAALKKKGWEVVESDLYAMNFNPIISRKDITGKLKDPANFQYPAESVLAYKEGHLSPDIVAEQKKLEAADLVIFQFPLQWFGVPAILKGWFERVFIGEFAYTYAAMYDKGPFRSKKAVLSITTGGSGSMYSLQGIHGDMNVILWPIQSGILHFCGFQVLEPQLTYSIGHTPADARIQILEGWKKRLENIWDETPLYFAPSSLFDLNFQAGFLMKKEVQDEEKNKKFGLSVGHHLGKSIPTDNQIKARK

What was measured:
flag-SIRT7 = flag-SIRT7 (UniProt Q9NRC8); test: co-IP; extracts of HEK293 cells co-transfected with NQO1 and flag-tagged protein; Flag beads, washed, eluted, immunoblot; also after 10 mM NAM or 50 uM Resveratrol for 16 h
flag-SIRT6 = flag-SIRT6 (UniProt Q8N6T7); test: as above
flag-SIRT1 [1] = molecular target: flag-SIRT1 (UniProt Q96EB6); test: as above
flag-SIRT1 H363Y = flag-SIRT1 H363Y (UniProt Q96EB6); test: as above
flag-SIRT2 = molecular target: T1, flag-SIRT2 (UniProt Q8IXJ6); test: as above
T1 sequence: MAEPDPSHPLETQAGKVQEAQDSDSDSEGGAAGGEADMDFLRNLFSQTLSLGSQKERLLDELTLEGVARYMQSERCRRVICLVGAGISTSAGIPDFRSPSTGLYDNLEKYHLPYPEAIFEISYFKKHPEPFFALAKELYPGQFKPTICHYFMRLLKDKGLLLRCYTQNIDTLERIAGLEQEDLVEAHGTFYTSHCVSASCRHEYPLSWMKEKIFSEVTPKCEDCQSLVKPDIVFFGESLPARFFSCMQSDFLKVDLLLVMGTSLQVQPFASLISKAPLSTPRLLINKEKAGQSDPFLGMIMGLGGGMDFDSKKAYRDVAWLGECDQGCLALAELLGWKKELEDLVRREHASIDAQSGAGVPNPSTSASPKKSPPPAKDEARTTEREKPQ

flag-SIRT1 [2] = molecular target: flag-SIRT1 (UniProt Q96EB6); test: co-IP; nuclear fraction of cells over expressing Flag-SIRT1 and NQO1, untreated or treated with rotenone or antimycin A for 16 h; flag immunoprecipitation
His-SIRT1 = His-SIRT1 (UniProt Q96EB6); test: pull-down; recombinant purified His-SIRT1 and NQO1 incubated, precipitated with Ni-NTA beads; 50 mM Tris-HCl pH 8.0, 150 mM NaCl, 20 mM imidazole; eluted with 200 mM imidazole; both purified

Substance: NQO1 (NAD(P)H Dehydrogenase Quinone 1) (from UniProt P15559 1-274) (enzyme)
- binding (flag-SIRT7): binds weakly
- binding (flag-SIRT6): binds weakly
- binding (flag-SIRT1 [1]): binds
- binding (flag-SIRT1 H363Y): no binding
- binding (flag-SIRT2): binds weakly
- binding (flag-SIRT1 [2]): binds

Substance: NQO1 (recombinant, His-TEV removed) (from UniProt P15559 1-274) (enzyme)
- binding (His-SIRT1): binds
